Assay results from PubChem BioAssay AID445 (National Center for Advancing Translational Sciences (NCATS), 2006).
Out of some 110,000 compounds screened, about 40 (0.04%) were called active. The shares of active, inactive and inconclusive entries below differ from those in the screen. The call rests on the fitted dose curve; in most records, active means well fitted curve in the direction sought with a large enough effect in the signal ratio (not every such curve was filed as active); inconclusive means small, poorly fitted or top-dose-only effect, or a change in a side signal; inactive means flat fitted curve, though single readings scatter; the % refers to the signal ratio. Potencies beside an inconclusive call are fits to weak or partial responses and may not hold up.

test: IkB Signaling; conditions: ABC-DLBCL IkBa-CBG/CBR dual luciferase ratio (green luciferase fused to IkBa over red control in OCI-Ly3 lymphoma cells), 4 h; IkBa stabilization activation: at 57.1 µM (top of the series), scaled: untreated 0%, proteasome inhibitor 100% unless noted;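 on IkBa stabilization activation: 0% = basal untreated cells and 100% = reference inhibitor full response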
Outline: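 Luminescence ratio of IκBα-fused green versus native red beetle luciferase in OCI-Ly3 cells, 4 h post-doxycycline with compound; red signal alone, scaled from basal (0%) to zero light (-100%), flagged nonspecific or cytotoxic effects.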
Potency means the concentration at half of the fitted maximal effect.

SMILES	Potency	IkBa stabilization activation
COc1ccc(OC)c(C2CC(=O)c3c([nH]c(C(=O)OC(C)C)c3C)C2)c1 (stereo not given)	inconclusive: 15.8 µM [rising, partial curve]	–
C[C@@]12CCC(=O)C=C1CC[C@@H]1[C@@H]2[C@H](O)C[C@]2(C)[C@@H]1CC[C@]2(O)C(=O)CO	active: 0.0794 µM	inconclusive: 13% [signal activator] [at 25.6 µM, scaled: untreated 0%, proteasome inhibitor 100%]
CCOC(=O)c1c(-c2cccs2)csc1NC(=O)CN1CC(C)OC(C)C1 (stereo not given)	–	inconclusive: 2.66% [signal inhibitor]
CS(=O)(=O)Nc1cccc(-c2cncnc2-n2ccnc2)c1	–	inactive: -1.81% [at 11.4 µM, scaled: untreated 0%, proteasome inhibitor 100%]
CC1CCN(C(=O)c2cc(-c3ccc(Br)cc3)on2)CC1	inconclusive: 31.6 µM [signal inhibitor, partial curve]	–
COc1ccccc1-c1cc(C(=O)N2CCN(c3ccccc3OC)CC2)no1	inconclusive: 3.16 µM [signal inhibitor, full curve]	–
CCOC(=O)C1CCCN(C(=O)c2nn(-c3ccc(C)cc3)c(=O)n(C)c2=O)C1 (stereo not given)	–	inconclusive: -3.15% [signal inhibitor]
COc1ccc2c(c1)c(N1CCCC1=O)c(C(=O)Nc1ccccc1C(F)(F)F)n2C	–	inconclusive: -0.504% [signal inhibitor]
COc1ccc(-c2noc(N3CCC(C(=O)N4CCN(c5cccc(C)c5C)CC4)CC3)n2)cc1	–	inconclusive: 3.68% [signal inhibitor]
COc1ccc(CC(=O)NCC(c2cccs2)S(=O)(=O)c2ccc(C)cc2)cc1 (stereo not given)	–	inconclusive: 3.47% [signal inhibitor]
COc1ccccc1CNc1ncnc2ccc(-c3ccc(C(=O)N(C)C)cc3)cc12	–	inactive: -3.15% [at 11.4 µM, scaled: untreated 0%, proteasome inhibitor 100%]
CC(=O)C1=C(O)C(=O)N(CCc2c[nH]c3ccccc23)C1c1ccco1 (stereo not given)	–	inconclusive: 4.53% [signal activator]
Cc1cc(C)n2cc(CSc3nnc(-c4ccccc4)o3)nc2n1	–	inactive: -0.18%
COC(=O)CCC(=O)Nc1ccc(NC(C)=O)cc1	–	inactive: 1.03%
CC(C)c1ccc(NC(=O)CN2C(=O)COc3ccc(S(=O)(=O)N4CCCCCC4)cc32)cc1	–	inactive: -0.025%
CCCCOc1ccccc1CC1C(=O)Nc2ccc(Br)cc21 (stereo not given)	–	inactive: -3.22%
Nc1nc(-c2ccc3c(c2)OCCO3)cs1	–	inactive: -1.16%
CCN(CC)C(=O)c1ccc(Nc2nnc(-c3ccc(C)c(S(=O)(=O)NC)c3)c3ccccc23)cc1	–	inconclusive: 2.81% [signal inhibitor]
COc1ccc(CNC(=O)CCCN2C(=O)CSc3c2c(C)nn3-c2ccccc2)cc1	–	inconclusive: -0.736% [signal inhibitor]
Cc1cccn2c(=O)c(C(=O)NCc3ccc(F)cc3)c(O)nc12	–	inconclusive: -1.33% [signal inhibitor]
CCOC(=O)c1c(C)[nH]c(C)c1S(=O)(=O)N1CCCC(C(=O)NCc2cccc(C)c2)C1 (stereo not given)	–	inactive: 0.61%
O=c1cc(-c2ccccc2)nc(SCc2nc(-c3ccccc3Cl)no2)[nH]1	–	inconclusive: 3.55% [signal inhibitor]

SMILES	Potency	IkBa stabilization activation
Cc1ccc(NC(=O)CSCC(N)=O)cc1C	–	inactive: 19.8%
CCCOc1cccc(C(=O)Nc2cccc3cccnc23)c1	–	inconclusive: 3.28% [signal inhibitor]
O=C(CN1C(=O)COc2ccc(Cl)cc21)Nc1ccc(F)cc1	–	inactive: 0.788%
COc1ccc(-c2nc3ccc(NS(=O)(=O)c4ccc(C)cc4)cc3o2)cc1	–	inconclusive: -0.729% [signal inhibitor]
CC(C)OCCCNC(=O)c1ccc(CSc2nc3cccnc3n2Cc2ccccc2)cc1	–	inconclusive: -3.15% [signal inhibitor]
O=C(OCc1cc(=O)n2nc(-c3cccs3)sc2n1)c1ccc(Cl)cc1	–	inconclusive: 2.35% [signal inhibitor]
CCC1=C(c2ccc(C)cc2)S(=O)(=O)N=C1N1CCC(C(=O)Nc2ccccc2F)CC1	–	inconclusive: -0.793% [signal inhibitor]
Cc1nc2sccn2c(=O)c1S(=O)(=O)Nc1ccc(N2CCOCC2)c(Cl)c1	–	inconclusive: 3.46% [signal inhibitor]
Cc1ccc(NC(=O)Cn2ncn3c(cc4ccccc43)c2=O)cc1F	–	inactive: 0.0138%
COC(=O)c1c(SCC(=O)Nc2cc(OC)cc(OC)c2)[nH]c2ccc(C)cc2c1=O	–	inconclusive: 3.79% [signal inhibitor]
CC1(C)CC(=O)C=C(NCCN2CCN(C(=O)Nc3ccc(Cl)c(Cl)c3)CC2)C1	–	inconclusive: 0.368% [signal inhibitor]
CCC1CCC(C(=O)NC(C(=O)Nc2cccc(OC)c2)C(C)C)CC1 (stereo not given)	–	inconclusive: 3.99% [signal inhibitor]
O=C(CCN1C(=O)COc2ccccc21)NCc1cccnc1	–	inactive: -0.445%
O=C(NC1CCCCCC1)C1c2ccccc2C(=O)N1Cc1ccco1 (stereo not given)	–	inactive: 0.678%
Cc1cccc(NC(=O)CSc2nnc3[nH]c(=O)cc(-c4ccccc4)n23)c1C	–	inactive: 3.11%
CCOC(=O)C1=C(c2ccccc2)NC(SC)=C(C#N)C1c1ccco1 (stereo not given)	–	inconclusive: -1.33% [signal inhibitor]
CCc1ccc(C(=O)c2cn(CC(=O)Nc3ccc4c(c3)OCO4)c3ccc(OC)cc3c2=O)cc1	–	inconclusive: 1.1% [signal inhibitor]
O=C(CSc1nnc(-c2ccccc2Br)o1)N1CCc2ccccc2C1	–	inconclusive: 2.21% [signal inhibitor]
CCC(NC(=O)c1ccccc1O)c1ccccc1 (stereo not given)	–	inconclusive: 2.62% [signal inhibitor]
N.N.O=C(O)C1(C(=O)O)CCC1.[Pt]	–	inactive: 7.33%
OC(COc1ccc2cc(Br)ccc2c1)CN1CCN(c2ccccn2)CC1 (stereo not given)	–	inconclusive: 3.2% [signal inhibitor]
Cc1ccccc1OCc1ccc(-c2nc(C#N)c(NCc3cccnc3)o2)o1	–	inactive: -0.845%
